Source: PubChem BioAssay AID902 (National Center for Advancing Translational Sciences (NCATS), 2007)
The campaign covered roughly 130,000 compounds. About 1,900 (1.5%) were called active. The inconclusive results got no clear call from the source; some entries with a clear call stand among them for comparison. The call rests on the fitted dose curve; in most records, active means well fitted cell-killing curve with a large enough effect; inconclusive means small, poorly fitted or top-dose-only effect; inactive means no such curve, though single readings can be large or run the other way. Where the call is inconclusive, the potency comes from a doubtful curve fit.

test: qHTS Screen for Compounds that Selectively Target Cancer Cells with p53 Mutations: Cytotoxicity of p53ts Cells at the Nonpermissive Temperature; details: H1299-p53A138V viability at 39C, ATP luminescence, 24 h; series mostly up to 46.1 µM; further: nearly all actives have a fitted effect of over 55% in size
Potency means the concentration at half of the fitted maximal effect; tags describe the fitted curve by direction and shape.

| Structure (SMILES) | Potency |
| --- | --- |
| Cc1nc2cc(C(F)(F)F)ccc2n1C1CCN(Cc2nnnn2Cc2ccc3c(c2)OCO3)CC1 | active: 20 µM |
| CC1O[C@@H](O[C@@H]2C(O)C[C@H](O[C@@H]3C(O)C[C@@H](OC4CC[C@@]5(C)C6CC[C@]7(C)C(C8=CC(=O)OC8)CC[C@@]7(O)C6CC[C@@H]5C4)OC3C)OC2C)CC(O)[C@H]1O (some centres undefined) | inconclusive: 0.02 µM [cytotoxic, full curve, poor fit] |
| Cc1nnc(NCc2ccccc2)c2c1nnn2Cc1ccc(F)cc1 | inconclusive: 20 µM [cytotoxic, single point] |
| N#Cc1cc2c(nc1SCC(=O)Nc1ccc(Cl)c(C(F)(F)F)c1)C1CCN2CC1 | inconclusive: 20 µM [cytotoxic, single point] |
| CC1OC(NCCc2ccccc2)C(O)C(O)C1O (centres undefined) | inconclusive: 12.6 µM [cytotoxic, single point] |
| Cc1ccc(CCNC(=O)c2cc3cc(S(=O)(=O)N4CCCCC4)ccc3n2C)cc1 | inconclusive: 0.891 µM [cytotoxic, partial curve] |
| C[C@@]12CC[C@H]3[C@@H](CCC4=C(O)C(=O)CC[C@]43C)[C@H]1CCC2=O | inactive |
| Cc1cc(C(C)(C)C)cc(C)c1CC1=NCCN1 | inconclusive: 3.16 µM [cytotoxic, partial curve] |
| Cc1cn2c(=O)cc(COC(=O)c3ccccc3F)nc2s1 | inconclusive: 12.6 µM [cytotoxic, partial curve, poor fit] |
| CCCCCCn1c(O)c(C=NC2CCCCC2N)c(=O)[nH]c1=O (centres undefined) | active: 5.01 µM |
| COc1ccc(NC(=O)c2oc3ccc(S(=O)(=O)N(C)C4CCCCC4)cc3c2C)cc1 | inconclusive: 3.98 µM [cytotoxic, full curve, poor fit] |
| Nc1c(C(=O)Nc2ccc(OC(F)(F)F)cc2)sc2nc3c(cc12)N1CCC3CC1 | inconclusive: 31.6 µM [cytotoxic, single point] |
| CCOC(=O)c1cccc(NC(=O)c2cnc(N3CCCCC3)c3ccccc23)c1 | inconclusive: 1.26 µM [cytotoxic, full curve, poor fit] |
| C[C@]12CCC3C(CC[C@]4(O)C[C@@H](O)CC[C@]34C=O)[C@@]1(O)CC[C@@H]2C1=CC(=O)OC1 (some centres undefined) | inconclusive: 0.501 µM [cytotoxic, full curve] |
| N=C(N)c1c(O)n(C2CCCCC2)c(=O)n(C2CCCCC2)c1=O | inactive |
| Cc1ccc(C(=O)COC(=O)c2cccc(NC(=O)c3ccc(Br)cc3)c2)cc1 | active: 7.94 µM |
| CCCCCCC(C)(C)c1ccc([C@@H]2C[C@H](O)CC[C@@H]2CCCO)c(O)c1 | active: 6.31 µM |
| O=C(Nc1sc2c(c1C(=O)Nc1ccc(Cl)cc1)CCCC2)c1cccs1 | inconclusive: 1.26 µM [cytotoxic, full curve] |
| O=C(Oc1ccccc1)N1CCC2(CCCN(Cc3nccs3)C2)CC1 | inconclusive: 31.6 µM [cytotoxic, single point] |
| Cc1ccc(N)c(N)c1 | inconclusive: 31.6 µM [cytotoxic, single point] |
| c1ccc(-c2ccc(C(c3ccccc3)n3ccnc3)cc2)cc1 (centres undefined) | inconclusive: 20 µM [cytotoxic, single point] |
| Nc1ccccc1O.O.O=C(O)[C@H]1[O][Sb][O][C@H]1C(=O)O | inconclusive: 6.31 µM [cytotoxic, single point] |

| Structure (SMILES) | Potency |
| --- | --- |
| COc1ccc(NC(=O)Nc2cccc3cccnc23)cc1 | active: 15.8 µM |
| O=P1(Nc2ccc(F)cc2)COc2ccccc2OC1 | inactive |
| COc1ccccc1-n1c(/C=C/c2ccccc2)nc2ccccc2c1=O | inconclusive: 31.6 µM [cytotoxic, partial curve] |
| Ic1ccccc1CN[C@@H]1C2CCN(CC2)[C@H]1C(c1ccccc1)c1ccccc1 | active: 20 µM |
| COc1ccc(C)cc1NC(=O)CN1CCN(CC(=O)Nc2ccccc2F)CC1 | inconclusive: 0.0316 µM [cytotoxic, full curve, poor fit] |
| CCc1ccc(-n2c(=O)c3sc4ccccc4c3n(CC(=O)NC3CCCC3)c2=O)cc1 | inconclusive: 31.6 µM [cytotoxic, single point] |
| CC(C)c1cccc(O)c(=O)c1 | inconclusive: 12.6 µM [cytotoxic, partial curve] |
| COc1ccc(CN2C(=O)CC(=O)NC2=O)cc1 | inactive |
| CCOc1ccc(NC(=O)CSc2oc(-c3ccccc3)nc2S(=O)(=O)c2ccc(Cl)cc2)cc1 | active: 2 µM |
| C/C=C(\C)C(=O)O[C@@H]1C(C)=C2[C@H]([C@@H]1OC(=O)CCCCCCC)[C@@](C)(OC(C)=O)C[C@@H](OC(=O)CCC)[C@@]1(O)[C@H]2OC(=O)[C@]1(C)O | active: 12.6 µM |
| Cc1ccc(Cl)cc1N1CCN(C(=O)c2cn(CC(C)C)c(=O)c3c2c2ccccc2n3C)CC1 | inconclusive: 6.31 µM [cytotoxic, partial curve] |
| O=c1c2ccccc2[se]n1-c1ccccc1 | inconclusive: 7.94 µM [cytotoxic, partial curve] |
| CC1=CC[C@@H]2[C@@H](C1)c1c(O)cc(CC#CCCCNS(C)(=O)=O)cc1OC2(C)C | inconclusive: 25.1 µM [cytotoxic, single point] |
| CC(C)=CCCC1(C)C=Cc2c(O)c3c(c(CC=C(C)C)c2O1)OC12C(=CC4CC1C(C)(C)OC2(C/C=C(/C)C(=O)O)C4=O)C3=O (centres undefined) | active: 6.31 µM |
| COc1cc2c(cc1O)C[C@H]1c3c(cc(OC)c(O)c3-2)CCN1C | inconclusive: 31.6 µM [cytotoxic, single point] |
| CNc1ccc2oc(C[C@H]3O[C@]4(CC[C@H]3C)O[C@H]([C@H](C)C(=O)c3ccc[nH]3)[C@H](C)C[C@H]4C)nc2c1C(=O)O | active: 3.16 µM |
| CC(=O)c1cccc(NC(=O)c2cc3c(s2)-c2c(C)cccc2OC3)c1 | active: 5.01 µM |
| CCc1ccc(NC(=O)c2cnc3sc(N4CCCC4)nn3c2=O)cc1 | inconclusive: 15.8 µM [cytotoxic, partial curve] |
| Oc1ccc2c3c1O[C@@H]1[C@@H](O)CC[C@]4(O)[C@H](C2)N(CC2CCC2)CC[C@@]314 | inactive |
| O=C1Nc2ccccc2C2(CCN(CCc3ccc(C(F)(F)F)cc3)CC2)O1 | inconclusive: 25.1 µM [cytotoxic, single point] |
| O=C(c1ccccc1)c1ccc2nc(N3CCN(c4ccc(F)cc4)CC3)c3nncn3c2c1 | inconclusive: 12.6 µM [cytotoxic, single point] |
| Cc1ccc(NC(=O)Cn2c(=O)cc(-c3ccccc3)c3c(C)nn(C)c32)c(Cl)c1 | inconclusive: 1.58 µM [cytotoxic, full curve, poor fit] |

| Structure (SMILES) | Potency |
| --- | --- |
| COc1ccccc1NC(=O)Cn1c(=O)n(-c2cccc(Cl)c2)c(=O)c2sc3ccccc3c21 | inconclusive: 7.94 µM [cytotoxic, partial curve, poor fit] |
| Nc1ccccc1N=Cc1c(O)n(CCC2=CCCCC2)c(=O)[nH]c1=O | inconclusive: 25.1 µM [cytotoxic, single point] |
| CSC([N-]/N=C/c1cccc(C)n1)=[S]=[Cu].CS[C@H]([S-])[N-]/N=C/c1cccc(C)n1 | inconclusive: 3.16 µM [cytotoxic, single point] |
| CCOC(=O)c1ccc(NC(=O)c2cccn(Cc3ccccc3F)c2=O)cc1 | inconclusive: 0.251 µM [cytotoxic, full curve, poor fit] |
| CCc1ccc(-n2nc(C)c3c2NC(=O)CSC3c2ccc(OC)cc2OC)cc1 (centres undefined) | inconclusive: 10 µM [cytotoxic, partial curve] |
| S=C=Nc1cccc(C2(N3CCCCC3)CCCCC2)c1 | inconclusive: 31.6 µM [cytotoxic, single point] |
| O[N+]1=CC=CCC1=S.On1ccccc1=S.[Zn] | active: 3.98 µM |
| Fc1ccc(C(OCCN2CCN(C/C=C\c3ccccc3)CC2)c2ccc(F)cc2)cc1 | active: 31.6 µM |
| Oc1cc2c(cc1O)[C@H]1c3ccccc3CN[C@H]1CC2 | inconclusive: 31.6 µM [cytotoxic, partial curve] |
| Cc1oc(-c2cccc(Cl)c2)nc1CN1CCC(C(=O)NCCCN2CCN(c3cccc(Cl)c3)CC2)CC1 | active: 10 µM |
| Cc1c(C(=O)OC2CCCCC2)[nH]c2c1C(=O)CC(c1ccccc1)C2 (centres undefined) | inconclusive: 20 µM [cytotoxic, partial curve] |
| CC(C)OC(=O)c1c(N)n(CC2CCCO2)c2nc3ccccc3nc12 (centres undefined) | inactive |
| CCOc1ccc(-c2cn3c(n2)sc2cc(C(=O)N4CCCC(C)C4)ccc23)cc1 (centres undefined) | inconclusive: 7.94 µM [cytotoxic, partial curve] |
| Cn1cnc2cc(NC(=O)c3ccc(Cl)cc3)ccc21 | inconclusive: 20 µM [cytotoxic, single point] |
| NC(=O)CI | active: 5.01 µM |
| CCOC(=O)c1ccc(N2C(=O)c3n[nH]c(-c4cccs4)c3C2c2ccc(C(C)(C)C)cc2)cc1 (centres undefined) | active: 15.8 µM |
| [Cl-].[Cl-].[Hg+2] | active: 25.1 µM |
| COc1ccc(C2CC(c3c(O)n(C4CCCCC4)c(=O)[nH]c3=O)=Nc3ccccc3S2)cc1 (centres undefined) | inconclusive: 10 µM [cytotoxic, partial curve] |
| COc1cccc(-n2c(SCC(=O)c3ccc(Cl)cc3)nc3c([nH]c4ccccc43)c2=O)c1 | inconclusive: 15.8 µM [cytotoxic, partial curve] |
| c1ccc(/N=C2\N=C(Nc3ccccn3)c3ccccc32)nc1 | inconclusive: 12.6 µM [cytotoxic, partial curve] |
